This note sets out measurements from PubChem BioAssay AID360 (National Center for Advancing Translational Sciences (NCATS), 2006).

The whole screen tested about 48,000 compounds, of which about 550 (1.1%) were called active. About 4% were inconclusive and are not listed. Rule as the data show it: active = potency below about 15 µM; inconclusive = mostly about 16 µM to 33 µM; inactive = weaker than that. This is one part of the list.
Potency is read from the fitted curve at half-maximal effect.

The test deals with Lysosomal acid glucosylceramidase (Homo sapiens) (UniProt P04062). In words: Glucocerebrosidase.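 Also: the screen sought inhibitors.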 The note with it: purified enzyme, resorufin glucoside fluorescence (screen aimed at inhibitors), 20 min; series mostly up to 77 µM. In short, it runs like this: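 Compounds titrated against 0.2 nM normal enzyme, 30 uM resorufin beta-D-glucopyranoside substrate, citrate/phosphate buffer with taurocholate and tween-20, pH 5.9. Reaction ran 20 min at room temperature; fluorescence (Ex 548/Em 600) gave AC50.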
Chain of UniProt P04062 (P04062 whole entry, looked up): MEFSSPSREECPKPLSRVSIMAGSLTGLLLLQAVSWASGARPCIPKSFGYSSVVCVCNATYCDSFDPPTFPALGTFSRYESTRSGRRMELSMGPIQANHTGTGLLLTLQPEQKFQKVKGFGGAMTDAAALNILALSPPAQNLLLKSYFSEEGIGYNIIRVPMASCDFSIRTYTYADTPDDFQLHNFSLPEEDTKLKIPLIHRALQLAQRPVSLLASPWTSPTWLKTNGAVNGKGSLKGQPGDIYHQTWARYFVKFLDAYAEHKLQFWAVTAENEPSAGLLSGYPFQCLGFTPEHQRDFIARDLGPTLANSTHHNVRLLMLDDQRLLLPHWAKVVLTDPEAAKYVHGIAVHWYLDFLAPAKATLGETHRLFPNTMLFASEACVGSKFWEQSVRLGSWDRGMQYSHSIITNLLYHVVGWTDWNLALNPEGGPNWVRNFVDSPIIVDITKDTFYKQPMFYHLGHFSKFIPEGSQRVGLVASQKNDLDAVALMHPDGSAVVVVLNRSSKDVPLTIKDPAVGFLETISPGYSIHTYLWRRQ
As to `C=CCn1c(CCNC(=O)c2ccccc2F)nnc1SCC(=O)Nc1nc(C)cs1`, the Potency was inactive: > 76.9 µM.

As for `CCCS(=O)(=O)N1CCC(C(=O)N2CCCC2)CC1`, the Potency is inactive: > 76.9 µM.

Turning to `Cc1nn(Cc2ccc(F)cc2)c(C)c1NC(=O)c1cc(-c2ccc3c(c2)OCO3)on1`, the Potency is inactive: > 76.9 µM.

Consider `Clc1ccc(Br)cc1-c1nc(-c2cccnc2)no1`, for which the Potency was inactive: > 76.9 µM.

As for `CC(C)Sc1nnc([C@@H]2CCCN2C(=O)OC(C)(C)C)o1`, the Potency was inactive: > 76.9 µM.

`CCOC(=O)N1CCC(NC(=O)CN2C(=O)C(CC)Oc3ccc(C)cc32)CC1` (centres undefined): the Potency is inactive: > 76.9 µM.

As for `Cn1nnnc1SCC(=O)Nc1ccccc1N1CCOCC1`, the Potency was inactive: > 76.9 µM.

`Cc1onc(-c2ccccc2)c1C(=O)OCC(=O)c1ccccc1`: the Potency is inactive: > 76.9 µM.

In the case of `O=C(c1ccco1)N1CCN(CC(=O)N2c3ccccc3CCc3ccccc32)CC1`, the Potency is inactive: > 76.9 µM.

`COc1ccc(N2CCN(C(=O)Cn3nnc(-c4cccs4)n3)CC2)cc1`: the Potency was inactive: > 76.9 µM.

Regarding `c1ccc(-c2nc3ccccc3o2)nc1`, the Potency is inactive: > 76.9 µM.

Regarding `CCS(=O)(=O)c1ccc(O)c(N2C(=O)C3C4C=CC(C4)C3C2=O)c1` (centres undefined), the Potency is inactive: > 76.9 µM.

For `CCCCN1C2CCCC1CC(NC(=O)c1ccc(OC)c(OC)c1)C2` (centres undefined), the Potency was inactive: > 76.9 µM.

For `CC(C)(C)NC(=O)c1ccc2c(c1)N(CC(=O)N1CCN(c3ccccc3F)CC1)C(=O)C(C)(C)O2`, the Potency was inactive: > 76.9 µM.

`CCn1c(SCC(=O)Nc2cc(NC(C)=O)ccc2OC)nnc1-c1ccccn1`: the Potency is inactive: > 76.9 µM.

In the case of `CC1Oc2ccccc2N(CC(=O)N(Cc2ccccc2)Cc2ccccn2)C1=O` (centres undefined), the Potency is inactive: > 76.9 µM.

Consider `O=C(c1ccc2nccnc2c1)N1CCN(Cc2ccc3c(c2)OCO3)CC1`, for which the Potency was inactive: > 76.9 µM.

As for `O=C(CC1(O)C(=O)N(C/C=C/c2ccccc2)c2ccccc21)c1ccccn1` (centres undefined), the Potency was inactive: > 76.9 µM.

Take `O=C(Cc1c(C(=O)O)[nH]c2ccccc12)NCCN1CCN(c2ccccc2F)CC1`: the Potency is inactive: > 76.9 µM.

As to `CCOc1ccccc1NC(=O)N1CCC(n2nnc3cc(C)ccc32)CC1`, the Potency is inactive: > 76.9 µM.

For `CC(C)(C)c1cc(NS(=O)(=O)c2ccc3c(c2)OCCO3)on1`, the Potency is inactive: > 76.9 µM.

Take `COc1ccc(N=C2SC(C(=O)O)CC(=O)N2Cc2ccc(OC)c(OC)c2)cc1` (centres undefined): the Potency was inactive: > 76.9 µM.

Regarding `N#Cc1cc2c(nc1SCc1cccnc1)CCCCC2`, the Potency is inactive: > 76.9 µM.

On to `Cc1cccc(N2CCN(C(=O)CCCOc3ccccc3)CC2)c1C`, for which the Potency was inactive: > 76.9 µM.

On to `CC1CCCCC1NC(=O)COC(=O)c1ccc(S(=O)(=O)N2CCOCC2)cc1` (centres undefined), for which the Potency was inactive: > 76.9 µM.

In the case of `CC(=O)N1CCC(=O)N(C(C)C)c2ccccc21`, the Potency is inactive: > 76.9 µM.

With `CC(=O)c1cccc(NC(=O)N2CCCC2C(=O)NCc2ccc(F)cc2)c1` (centres undefined), the Potency is inactive: > 76.9 µM.

As to `C=CCNC(=O)C1CCN(S(=O)(=O)c2ccccc2)CC1`, the Potency was inactive: > 76.9 µM.

Consider `Cc1ccc(S(=O)(=O)C2(C(=O)N3CCCCCC3)CC2)cc1`, for which the Potency is inactive: > 76.9 µM.

`O=C(CSCc1cnn(-c2ccccc2)c1-n1cccc1)NCc1cccs1`: the Potency was inactive: > 76.9 µM.

For `COc1ccc(Br)cc1C(=O)Nc1ccc(N2CCN(S(C)(=O)=O)CC2)cc1`, the Potency is active: 11.7 µM.

Turning to `O=C(CCNS(=O)(=O)c1ccc(Br)s1)N1CCN(c2ccccc2)CC1`, the Potency is inactive: > 76.9 µM.

Regarding `Cc1ccc(NC(=O)N2CCC(C(=O)NCC(C)C)CC2)cc1`, the Potency was inactive: > 76.9 µM.

With `CCC(C)n1c(-c2cccs2)nc2nc3ccccc3nc21` (centres undefined), the Potency is inactive: > 76.9 µM.

For `COc1ccc(-c2cc(C(=O)N3CCc4ccccc4C3)no2)cc1OC`, the Potency is inactive: > 76.9 µM.

Consider `c1ccc(-c2nc3nc4ccccc4nc3n2Cc2ccco2)cc1`, for which the Potency was inactive: > 76.9 µM.

As for `Cn1c(=O)[nH]c(=O)c2c1nc(CN1CCN(c3ccccc3F)CC1)n2CCCc1ccccc1`, the Potency is inactive: > 76.9 µM.

`CCOC(=O)c1sc2nc3c(cc2c1N)COC(C)(C)C3`: the Potency was inactive: > 76.9 µM.

Turning to `C=CCNc1oc(-c2cccc3ccccc23)nc1C#N`, the Potency was inactive: > 76.9 µM.

With `COC(=O)c1cn(C(=O)OC)c2ccccc12`, the Potency is inactive: > 76.9 µM.

For the compound `O=c1cc(-c2ccccc2)[nH]c2[nH]n(-c3ccccc3)c(=O)c12`, the Potency is inactive: > 76.9 µM.

Take `Cc1ccc(C)c(Cn2nnc3c(=O)[nH]c(C(=O)NCc4ccco4)nc32)c1`: the Potency was inactive: > 76.9 µM.

As for `O=C(COC(=O)c1cccs1)NCc1ccccc1`, the Potency is inactive: > 76.9 µM.

As for `Cc1cccc2cc(CN(CCN3CCOCC3)C(=O)NCc3ccccc3)c(=O)[nH]c12`, the Potency is inactive: > 76.9 µM.

As for `COC(=O)c1ccc(NC(=O)C2CCCN2S(=O)(=O)c2ccc(OC)cc2)cc1` (centres undefined), the Potency was inactive: > 76.9 µM.

On to `Cc1ccc(SCC(=O)NCCN2C(=O)CSC2=O)c(C)c1`, for which the Potency is inactive: > 76.9 µM.

As for `CN(c1ccc(OCc2nnc(-c3ccccc3)o2)cc1)S(=O)(=O)c1ccccc1`, the Potency was inactive: > 76.9 µM.

`CCCCC(=O)Nc1cccc(NC(=O)CC)c1`: the Potency was inactive: > 76.9 µM.

As for `CCN(CC)S(=O)(=O)c1cccc(C(=O)N2CCCCC2)c1`, the Potency was inactive: > 76.9 µM.

On to `Cc1ccc2c(c1)C(O)(c1c(C)[nH]c3ccccc13)C(=O)N2` (centres undefined), for which the Potency was inactive: > 76.9 µM.

Consider `COc1ccc(CCn2c(C)cc(C(=O)CSc3nnc(N)s3)c2C)cc1`, for which the Potency is inactive: > 76.9 µM.

As for `CC(C)C(OC(=O)c1ccco1)C(=O)NC1CCCCC1` (centres undefined), the Potency is inactive: > 76.9 µM.

For `CCCCn1nnc(NC(=O)c2sc3cc(Cl)ccc3c2Cl)n1`, the Potency is inactive: > 76.9 µM.

For the compound `Cc1ccc(S(=O)(=O)N2CCC(C(=O)Nc3nnc(C4CCCC4)s3)CC2)cc1`, the Potency was inactive: > 76.9 µM.

`CCOC(=O)c1ccccc1NC(=O)CSc1nc2c(c(=O)n(C)c(=O)n2C)n1C`: the Potency was inactive: > 76.9 µM.

As to `Cc1cc(C)c(C)c(OCc2nc(-c3cccnc3)no2)c1`, the Potency was inactive: > 76.9 µM.

Consider `O=C(CCNS(=O)(=O)c1cccs1)N1CCc2ccccc2C1`, for which the Potency was inactive: > 76.9 µM.

For the compound `COc1cccc(-n2c(SCC(=O)OC(C)C)nnc2-c2cccnc2)c1`, the Potency was inactive: > 76.9 µM.

Consider `Cc1cc(NC(=O)COC(=O)COc2ccc3c(c2)CCC3)no1`, for which the Potency is inactive: > 76.9 µM.

`Cc1ccc(-c2nc(N)n(C(=O)Cc3ccccc3)n2)cc1`: the Potency is inactive: > 76.9 µM.

`CC1CCCCN1c1nnc(N)s1` (centres undefined): the Potency is inactive: > 76.9 µM.

With `CC(=O)c1cn(CC(=O)NCc2cccnc2)c2ccccc12`, the Potency was inactive: > 76.9 µM.

Consider `Cc1ccc(C(C)C)c(OCC(=O)Nc2ccc(Cl)cn2)c1`, for which the Potency is inactive: > 76.9 µM.

For the compound `Clc1ccc(-c2nn3c(-c4ccncc4)nnc3s2)c(Cl)c1`, the Potency was inactive: > 76.9 µM.

Consider `CCCC(=O)Nc1ccc2oc(-c3ccncc3)nc2c1`, for which the Potency is inactive: > 76.9 µM.

Consider `O=C(NC1(C(F)(F)F)C(=O)Nc2c1c(=O)[nH]c(=O)n2Cc1ccco1)C1CC1` (centres undefined), for which the Potency was inactive: > 76.9 µM.

Regarding `NC(=O)c1sc2nc3c(c(-c4cccs4)c2c1N)CCCC3`, the Potency is inactive: > 76.9 µM.

As for `CCOC(=O)c1ccc(-n2[nH]c(-c3ccccc3)cc2=O)cc1`, the Potency was inactive: > 76.9 µM.

Consider `O=C(NC1CCCCC1)C1CCN(c2nccs2)CC1`, for which the Potency is inactive: > 76.9 µM.

Regarding `Cc1ccc2nc(-c3ccc(SCC(=O)O)nc3)[nH]c2c1`, the Potency was inactive: > 76.9 µM.

Take `CCOc1ccc(NC(=O)CN2CCN(CC(=O)Nc3ccc(C(=O)OC)cc3)CC2)cc1`: the Potency is inactive: > 76.9 µM.

As for `CN1CCN(C(=O)c2ccc3c(c2)NC(=O)C(C)(C)O3)CC1`, the Potency is inactive: > 76.9 µM.

For the compound `COc1cccc(CNc2ccc(S(N)(=O)=O)cc2)c1OC`, the Potency is inactive: > 76.9 µM.

With `O=C(OCn1nnc2ccccc2c1=O)c1ccc2ncsc2c1`, the Potency was inactive: > 76.9 µM.

`Cc1ccc2c(COC(=O)c3cnc(C)cn3)cc(=O)oc2c1`: the Potency is inactive: > 76.9 µM.

On to `CCOc1ccc(NC(=O)CN2CCC(NC(=O)C3CCCCC3)CC2)cc1`, for which the Potency was inactive: > 76.9 µM.

Take `O=C(NCC(=O)N(c1ccccc1)C(C(=O)NC1CCCCC1)c1ccncc1)c1ccco1` (centres undefined): the Potency is inactive: > 76.9 µM.

Consider `O=C(O)C1CCCN1S(=O)(=O)c1ccc2ccccc2c1` (centres undefined), for which the Potency is inactive: > 76.9 µM.

Regarding `O=C1Nc2cc(C(=O)N3CCOCC3)ccc2SC1N1CCOCC1` (centres undefined), the Potency was inactive: > 76.9 µM.

Consider `CC(C)COC(=O)n1c(=O)oc2cc(S(=O)(=O)N3CCCCC3)ccc21`, for which the Potency is inactive: > 76.9 µM.

In the case of `CCS(=O)(=O)NCCc1cc2c(OC)ccc(OC)c2[nH]c1=O`, the Potency was inactive: > 76.9 µM.

On to `O=C(NCCCn1ccnc1)C(F)(F)C(F)(F)C(=O)NCCCn1ccnc1`, for which the Potency was inactive: > 76.9 µM.

Turning to `Cc1nc(SCC(=O)c2c[nH]c3ccccc23)n[nH]1`, the Potency is inactive: > 76.9 µM.

Take `Cn1c(SCCS(=O)(=O)c2ccc(Cl)cc2)nnc1-c1ccccc1`: the Potency is inactive: > 76.9 µM.

As for `Cc1nnc(SCCN2CCOCC2)n1-c1cccc(Cl)c1`, the Potency is inactive: > 76.9 µM.

Turning to `O=C(COc1ccc(S(=O)(=O)NCCc2ccccc2)cc1)N1CCCC1`, the Potency is inactive: > 76.9 µM.

For `CCOC(=O)C1CCN(C(=O)c2ccc(NC(=O)C3CCCO3)cc2)CC1` (centres undefined), the Potency was inactive: > 76.9 µM.

Take `O=C(CSc1nnc(-c2ccco2)n1-c1ccccc1)NCc1ccc2c(c1)OCO2`: the Potency was inactive: > 76.9 µM.

Consider `Cn1c(C(=O)N2CCc3ccccc32)cc2c(=O)n3ccccc3nc21`, for which the Potency is inactive: > 76.9 µM.
